Source: article PMC4336329 (PLoS ONE, 2015)
About 2,200 (0.71%) of roughly 310,000 compounds showed an effect of 50% or more. The effect is printed as a negative number. The list shows a part of the results.

Target: human ether-à-go-go-related gene (hERG) potassium channel (human, UniProt Q12809)
Assay: primary screen, population patch clamp on CHO cells stably expressing hERG

Sequence of human ether-à-go-go-related gene (hERG) potassium channel (Q12809 whole entry, looked up): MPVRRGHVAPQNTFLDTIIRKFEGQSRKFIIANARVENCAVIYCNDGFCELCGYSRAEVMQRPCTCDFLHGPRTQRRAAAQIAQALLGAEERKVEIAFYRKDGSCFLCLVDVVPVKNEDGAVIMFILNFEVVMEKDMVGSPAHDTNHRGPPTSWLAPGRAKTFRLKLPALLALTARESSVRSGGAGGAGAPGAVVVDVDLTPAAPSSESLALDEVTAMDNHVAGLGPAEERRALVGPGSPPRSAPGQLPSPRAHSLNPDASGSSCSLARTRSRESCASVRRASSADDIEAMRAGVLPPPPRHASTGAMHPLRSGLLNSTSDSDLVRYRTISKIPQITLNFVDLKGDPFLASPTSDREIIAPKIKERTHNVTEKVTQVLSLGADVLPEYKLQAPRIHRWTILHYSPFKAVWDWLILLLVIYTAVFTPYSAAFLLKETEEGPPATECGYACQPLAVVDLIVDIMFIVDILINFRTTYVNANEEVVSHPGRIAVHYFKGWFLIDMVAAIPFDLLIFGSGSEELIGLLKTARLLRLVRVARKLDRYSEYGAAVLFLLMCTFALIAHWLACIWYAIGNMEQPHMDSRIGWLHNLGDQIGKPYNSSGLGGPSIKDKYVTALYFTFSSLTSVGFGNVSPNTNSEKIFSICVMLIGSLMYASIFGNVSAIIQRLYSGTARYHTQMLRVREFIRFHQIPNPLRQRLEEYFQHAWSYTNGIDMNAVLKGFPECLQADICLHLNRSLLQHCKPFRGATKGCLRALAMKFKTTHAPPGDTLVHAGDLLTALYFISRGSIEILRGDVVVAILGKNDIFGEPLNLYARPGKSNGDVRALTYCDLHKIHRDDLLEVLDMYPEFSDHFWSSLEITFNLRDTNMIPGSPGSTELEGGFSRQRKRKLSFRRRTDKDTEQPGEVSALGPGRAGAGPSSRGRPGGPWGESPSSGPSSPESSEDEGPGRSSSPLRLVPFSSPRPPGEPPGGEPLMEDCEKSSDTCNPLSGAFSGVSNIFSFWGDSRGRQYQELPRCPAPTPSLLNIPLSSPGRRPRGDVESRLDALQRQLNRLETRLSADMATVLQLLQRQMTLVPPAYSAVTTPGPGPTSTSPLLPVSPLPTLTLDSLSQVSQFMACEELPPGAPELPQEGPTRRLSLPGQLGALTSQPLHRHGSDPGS

Row | SMILES | hERG current change (%, negative = inhibition) at 1uM
1 | Cc1ccc(/C=N/N2CCN(Cc3cccc4ccccc34)CC2)o1 | 8.84%
2 | O=C(CSc1ncc(-c2ccccc2)[nH]1)Nc1cccc(O)c1 | 2.59%
3 | Cc1ccc(-n2nc(C)c(Sc3ccccc3[N+](=O)[O-])c2N)cc1 | 5.25%
4 | COc1ccc(CN(C2CCCC2)S(=O)(=O)c2ccc(-n3cnnn3)cc2)cc1OC | -18.9%
5 | Cc1nc2ccccc2c(C)c1CC(=O)N(C)CC(=O)Nc1cccc(F)c1 | -13.2%
6 | CCN(CC)c1ccc(/C=N/N2CCN(Cc3ccccc3)CC2)c(O)c1 | -0.743%
7 | Cc1ccccc1NC(=O)Nc1ccccc1C(=O)NCc1ccccc1 | 0.0206%
8 | Cc1cc(C)n(Cc2cccc(C(=O)N/N=C/c3ccncc3)c2)n1 | 11.1%
9 | CCc1nnc(NC(=O)CSc2ccc(-c3nc4ccc(C)cc4[nH]3)cn2)s1 | 13.2%
10 | Nc1nonc1C(=O)OCC(=O)N1CCCCC1 | 15.7%
11 | COc1ccccc1N=Cc1c(O)n(C)c(=O)n(C)c1=O | 6.27%
12 | Cc1cccc(N(C(=O)c2csnn2)C(C(=O)NC(C)(C)C)c2cccnc2)c1 (centres unmarked) | 13.6%
13 | O=c1c2cc(Cl)cc(Cl)c2nc2n1CCC2 | 15.2%
14 | CCn1c(SCC(=O)Nc2sc3c(c2C#N)CCCC3)nnc1-c1ccco1 | -8.69%
15 | O=C1C(=O)N(O)C2CCCCC2N1O (centres unmarked) | 10.6%
16 | Cc1ccc(NC2CCCN(C(=O)CCC3(C)CC3)C2)cc1C (centres unmarked) | 2.52%
17 | O=C(CSc1ccc2nnc(CCNC(=O)c3ccccc3)n2n1)NC1CCCC1 | 11.6%
18 | Cc1ccc(C(=O)Nc2ccc(S(=O)(=O)Nc3ncccn3)cc2)cc1[N+](=O)[O-] | 12.6%
19 | COc1ccc(NC(=S)NCC(c2ccco2)N2CCCC2)cc1 (centres unmarked) | 2.66%
20 | O=C(O)C1C2C=CC(C2)C1C(=O)Nc1cccc(C(=O)N2CCCCC2)c1 (centres unmarked) | 1.41%
21 | CC(C)CC(C(=O)Nc1ccccc1)N1C(=O)C2C3C=CC(C3)C2C1=O (centres unmarked) | 8.47%
22 | COC(=O)C1=C(c2ccc3ccccc3c2)C[C@@H]2CC[C@H]1N2C(=O)NC1Cc2ccccc2C1 | 10.6%

Row | SMILES | hERG current change (%, negative = inhibition) at 1uM
23 | Cc1cccc(N2CC(C)Cn3c2nc2c3c(=O)n(CC(=O)OCc3ccccc3)c(=O)n2C)c1 (centres unmarked) | 11.3%
24 | O=C(NCc1ccc2c(c1)OCO2)C1CCN(Cc2cnn(-c3ccccc3)c2-n2cccc2)CC1 | -18.8%
25 | CCCCCCCSc1cc(OC)c(CCNC)cc1OC.O=C(O)/C=C\C(=O)O | 0.868%
26 | O=c1[nH]c(SCc2ccc(Cl)cc2)nc2c1CCC2 | 8.02%
27 | C=CCn1c(SC2CCOC2=O)nc2scc(C3CC3)c2c1=O (centres unmarked) | -11.6%
28 | CCOCCCNC(=S)N(CCO)Cc1cc2cc3c(cc2[nH]c1=O)OCCO3 | 16.6%
29 | CN1CCN(S(=O)(=O)c2ccc3[nH]c(=O)oc3c2)CC1 | -1.23%
30 | O=C(NCC(=O)N1CCN(c2ccccc2F)CC1)c1ccc(Br)o1 | -6.22%
31 | Cc1sc(NC(=O)c2ccc(Br)s2)c(C(N)=O)c1C | 18.8%
32 | C=CCN(Cc1nc(-c2cc(OC)c3c(c2)OCO3)oc1C)C1CCS(=O)(=O)C1 (centres unmarked) | 10%
33 | CC(OC(=O)C1=NNC(=O)CC1)C(=O)Nc1ncc(Cl)cc1Cl (centres unmarked) | 8.74%
34 | CCCN1C=CC(=CC=C(C#N)C#N)C=C1 | 8.7%
35 | Cc1ccccc1N(CC(=O)N/N=C/c1ccc(Cl)cc1)C(=O)c1ccccc1 | 10.6%
36 | O=C(NCCCN1CCOCC1)C(=O)NCCc1ccccc1 | 11.6%
37 | CCN(CC(=O)Nc1c(F)cccc1F)C(=O)CCc1nc2cc(S(=O)(=O)N(C)C)ccc2n1CC | 4.54%
38 | Cn1c(-c2ccccc2)n[nH]c1=S | 0.362%
39 | C=CCn1c(N)c(C(=O)Nc2ccc(C)c(C)c2)c2nc3ccccc3nc21 | 16.9%
40 | CC(C)(C)c1ccc(/C=C2\Oc3cc(OC(=O)N4CCOCC4)ccc3C2=O)cc1 | 1.94%
41 | CCOc1ncccc1C(=O)NCCCSc1ccccc1 | -15.8%
42 | COc1cccc(-c2cc(C(F)(F)F)nc(-n3ccc([N+](=O)[O-])n3)n2)c1 | 6.28%
43 | CCc1ccc2c(CSc3nnnn3C)cc(=O)oc2c1 | -14.4%
44 | CCC(=O)Nc1c(S(=O)(=O)c2ccc(C)cc2)c2nc3ccccc3nc2n1C(C)c1ccccc1 (centres unmarked) | 2.06%
